The supplement of paper PMC9174493
The other results are listed elsewhere or left out. Single values of this set are uncertain. Values with irradiation are relative to irradiated vehicle.

Each compound was assayed on A549-Dual (assay: NF-kB reporter (SEAP) activity, viability-corrected, relative to vehicle (fold change vs vehicle); higher = more activation of STING-IRF / NF-kB immune response reporter). Conditions: 10 µM; irradiation: none.
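Note: viability correction based on the alamar blue assay, with concentrations leaving 10% survival or less dropped.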

SMILES | NF-kB reporter
NCCCC[C@H](N)C(=O)O [L-lysine] | 0.774
CC(CCC(=O)O)C1CCC2C3C(O)CC4CC(O)CCC4(C)C3CCC12C (stereo not drawn) [Ursodiol] | 0.835
C=C1c2c(Cl)ccc(O)c2C(=O)C2=C(O)C3(O)C(=O)C(C(N)=O)=C(O)C(N(C)C)C3C(O)C12.O=C(O)c1cc(S(=O)(=O)O)ccc1O (stereo not drawn) [Meclocycline Sulfosalicylate] | 0.921
COc1ccc(Cc2cnc(N)nc2N)cc1OC [Diaveridine] | 1.31
CC(CCC(=O)O)C1CCC2C3C(O)CC4CC(O)CCC4(C)C3CCC12C (stereo not drawn) [Chenodeoxycholic Acid] | 0.441
COc1cc(/C=C/C(=O)[O-])ccc1O.[Na+] [Sodium ferulate] | 1.57
CN1CCN(CC(=O)N2c3ccccc3C(=O)Nc3cccnc32)CC1.Cl.Cl [Pirenzepine dihydrochloride] | 1.01
OCc1ccccc1 [Benzyl alcohol] | 0.703
CN1c2ccccc2C(=O)N2CCc3c([nH]c4ccccc34)C21 (stereo not drawn) [Evodiamine] | 1.26
Cl.OC(CCN1CCCCC1)(c1ccccc1)C1CCCCC1 (stereo not drawn) [Trihexyphenidyl hydrochloride] | 1.5
CCNC1CN(CCCOC)S(=O)(=O)c2sc(S(N)(=O)=O)cc21 (stereo not drawn) [Brinzolamide] | 0.686
CCCCNc1cc(C(=O)O)cc(S(N)(=O)=O)c1Oc1ccccc1 [Bumetanide] | 1.09
Cl.NCCCC[C@H](N)C(=O)O [L-Lysine hydrochloride] | 0.778
